Data as given in PubChem BioAssay (Tox21).
“And” between values parts separate entries of the source, which are not always exact repeats. Equal entries are not always repeated. Inconclusive results, whose numbers are uncertain, are shown with a selection of clear calls. For some assays here: A potency beside an inconclusive call is a rough fit, not a confirmed value. The source made the active and inactive calls. Unless noted, the call rests on the fitted dose curve; in most records, active means well fitted curve in the direction sought with a large enough effect in the repeat runs; inconclusive means weak or mixed curves; inactive means no such curve, though single readings can be large; an effect the other way counts as inactive or inconclusive.

Assays:
[1] = molecular target: Glucocorticoid receptor (Homo sapiens) (UniProt P04150); assay: qHTS assay to identify small molecule antagonists of the glucocorticoid receptor (GR) signaling pathway (AID 720692; active means well fitted inhibition curve with a large enough effect in the signal ratio in the repeat runs, not every such curve was filed as active; inconclusive means weak or mixed curves, or effect the other way; inactive means no such curve, though single readings can be large or run the other way; the % refers to the signal ratio; further: potency means the concentration at half of the fitted maximal effect); settings: GR-bla HeLa, beta-lactamase FRET ratio, dexamethasone-stimulated, 18 h; activity change, negative = inhibition: at 58.5 µM (top of the series) unless noted
Chain of UniProt P04150 (P04150 whole entry, looked up): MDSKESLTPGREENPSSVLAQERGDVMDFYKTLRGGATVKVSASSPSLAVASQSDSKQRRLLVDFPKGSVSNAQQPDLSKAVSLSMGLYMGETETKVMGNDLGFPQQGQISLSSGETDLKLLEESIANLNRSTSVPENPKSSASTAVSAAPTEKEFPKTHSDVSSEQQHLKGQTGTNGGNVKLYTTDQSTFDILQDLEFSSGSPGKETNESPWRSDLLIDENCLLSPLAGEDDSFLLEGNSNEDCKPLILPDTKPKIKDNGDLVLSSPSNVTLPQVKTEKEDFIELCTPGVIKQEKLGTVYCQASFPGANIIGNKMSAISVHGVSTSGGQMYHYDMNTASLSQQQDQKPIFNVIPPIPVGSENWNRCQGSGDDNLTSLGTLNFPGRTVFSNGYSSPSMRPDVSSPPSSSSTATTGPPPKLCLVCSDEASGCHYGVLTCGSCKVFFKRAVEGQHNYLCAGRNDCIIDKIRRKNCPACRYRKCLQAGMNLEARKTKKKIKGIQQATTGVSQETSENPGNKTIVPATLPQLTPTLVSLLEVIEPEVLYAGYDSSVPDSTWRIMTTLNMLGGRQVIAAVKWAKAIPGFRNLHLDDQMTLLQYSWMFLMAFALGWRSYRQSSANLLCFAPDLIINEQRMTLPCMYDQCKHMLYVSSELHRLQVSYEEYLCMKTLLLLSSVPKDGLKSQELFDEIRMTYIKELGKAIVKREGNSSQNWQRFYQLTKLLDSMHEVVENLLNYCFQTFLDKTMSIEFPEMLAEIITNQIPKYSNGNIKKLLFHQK
Procedure, shortened: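 GR-bla HeLa cells (beta-lactamase reporter under glucocorticoid response element) were pre-plated 4 h at 37 C, treated with compounds plus 5 nM dexamethasone (final) for 18 h, then read by LiveBLAzer B/G FRET fluorescence after 2 h.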

[2] = qHTS assay for identifying genotoxic compounds that show differential cytotoxicity against isogenic chicken DT40 cell lines with known DNA damage response pathways - wild type cell line (AID 743012); settings: DT40 wild type chicken cells viability, CellTiter-Glo, 40 h; activity change, negative = cytotoxicity: at 68.4 µM (top of the series) unless noted; further: potency means the concentration at half of the fitted maximal effect; nearly all actives have a fitted effect of over 60% in size
Procedure, shortened: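 Parental DNA repair-proficient DT40 cells, 300 per well, were pre-incubated ~0.5 h at 37 C/5% CO2, pin-dosed with compounds in DMSO, then incubated 40 h. Viability was read as CellTiter-Glo luminescence after 30 min at room temperature.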

[3] = molecular target: Peroxisome proliferator-activated receptor gamma (Homo sapiens) (UniProt P37231); assay: qHTS assay to identify small molecule antagonists of the peroxisome proliferator-activated receptor gamma (PPARg) signaling pathway (AID 743191; calls by dose curve; further: on the % scale 0 is the no-effect control and ±100 the full control effect; nearly all actives have a fitted effect of over 30% in size); settings: HEK293H PPARg-UAS-bla, beta-lactamase ratio, antagonist, 17 h; ratio activity, negative = inhibition: at 62.6 µM (top of the series) unless noted
Chain of UniProt P37231 (P37231 whole entry, looked up): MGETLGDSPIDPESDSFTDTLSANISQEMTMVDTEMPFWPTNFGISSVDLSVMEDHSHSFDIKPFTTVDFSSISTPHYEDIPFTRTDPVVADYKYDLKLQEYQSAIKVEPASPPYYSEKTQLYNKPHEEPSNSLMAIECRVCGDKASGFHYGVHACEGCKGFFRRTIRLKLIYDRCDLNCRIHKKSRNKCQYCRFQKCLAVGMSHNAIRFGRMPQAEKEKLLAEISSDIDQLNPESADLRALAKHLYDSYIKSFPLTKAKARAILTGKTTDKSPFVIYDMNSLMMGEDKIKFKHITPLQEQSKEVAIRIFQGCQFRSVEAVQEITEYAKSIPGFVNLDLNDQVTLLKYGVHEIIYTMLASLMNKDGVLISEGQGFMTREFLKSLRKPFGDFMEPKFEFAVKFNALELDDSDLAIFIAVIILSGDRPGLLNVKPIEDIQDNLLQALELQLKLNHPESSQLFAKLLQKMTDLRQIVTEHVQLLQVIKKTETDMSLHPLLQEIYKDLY
Procedure, shortened: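 GeneBLAzer PPARg UAS-bla HEK293H cells, 5 h post-plating, exposed to compounds 17 h at 37C. LiveBLAzer B/G FRET substrate added for 1 h at room temperature; beta-lactamase reporter read by fluorescence intensity.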

[4] = qHTS assay to identify small molecule agonists of the retinoic acid receptor (RAR) signaling pathway (AID 1159553); settings: C3RL4 RARE luciferase reporter, agonist, 6 h; activation: at 73.3 µM (top of the series) unless noted; further: potency means the concentration at half of the fitted maximal effect; on activation: on the % scale 0 is the no-effect control and ±100 the full control effect
Procedure, shortened: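 C3RL4 cells carrying a RARE luciferase reporter were plated overnight at 37 C, then exposed to compounds in DMSO for 6 hr at 37 C and 5% CO2. Luminescence was read 30 min after luciferase reagent addition at room temperature.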

[5] = qHTS assay to identify small molecule antagonists of the sonic hedgehog signaling (Shh) pathway (AID 1259369; calls by dose curve; further: nearly all actives have a fitted effect of over 45% in size; further: potency means the concentration at half of the fitted maximal effect)
Procedure, shortened: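 NIH/3T3-derived 3T3Gli1-Luc cells with stably integrated Gli1-Luc reporter were preincubated 4hr at 37 C, then given compounds in DMSO plus Shh conditioned medium and incubated 24hr. Firefly luciferase luminescence read after 30min reagent at room temperature.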

[6] = qHTS assay to identify small molecule agonists of the estrogen receptor beta (ER-beta) signaling pathway - cell viability counter screen (AID 1259380); further: on the % scale 0 is the no-effect control and ±100 the full control effect; nearly all actives have a fitted effect of over 30% in size
Procedure, shortened: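 ER-beta-UAS-bla HEK293T cells in medium with 2% charcoal-stripped FBS were preincubated 6 hr at 37C, dosed with compound in DMSO for 16 hr, then after the bla read, CellTiter-Glo was added for 30 min at room temperature; luminescence recorded.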

[7] = molecular target: Progesterone receptor (Homo sapiens) (UniProt P06401); assay: qHTS assay to identify small molecule antagonists of the progesterone receptor (PR) signaling pathway (AID 1346795; active means well fitted inhibition curve with a large enough effect in the signal ratio in the repeat runs, not every such curve was filed as active; inconclusive means weak or mixed curves; the % refers to the signal ratio; further: potency means the concentration at half of the fitted maximal effect); settings: PR-UAS-bla HEK293T, beta-lactamase FRET ratio, 16 h
Chain of UniProt P06401 (P06401 whole entry, looked up): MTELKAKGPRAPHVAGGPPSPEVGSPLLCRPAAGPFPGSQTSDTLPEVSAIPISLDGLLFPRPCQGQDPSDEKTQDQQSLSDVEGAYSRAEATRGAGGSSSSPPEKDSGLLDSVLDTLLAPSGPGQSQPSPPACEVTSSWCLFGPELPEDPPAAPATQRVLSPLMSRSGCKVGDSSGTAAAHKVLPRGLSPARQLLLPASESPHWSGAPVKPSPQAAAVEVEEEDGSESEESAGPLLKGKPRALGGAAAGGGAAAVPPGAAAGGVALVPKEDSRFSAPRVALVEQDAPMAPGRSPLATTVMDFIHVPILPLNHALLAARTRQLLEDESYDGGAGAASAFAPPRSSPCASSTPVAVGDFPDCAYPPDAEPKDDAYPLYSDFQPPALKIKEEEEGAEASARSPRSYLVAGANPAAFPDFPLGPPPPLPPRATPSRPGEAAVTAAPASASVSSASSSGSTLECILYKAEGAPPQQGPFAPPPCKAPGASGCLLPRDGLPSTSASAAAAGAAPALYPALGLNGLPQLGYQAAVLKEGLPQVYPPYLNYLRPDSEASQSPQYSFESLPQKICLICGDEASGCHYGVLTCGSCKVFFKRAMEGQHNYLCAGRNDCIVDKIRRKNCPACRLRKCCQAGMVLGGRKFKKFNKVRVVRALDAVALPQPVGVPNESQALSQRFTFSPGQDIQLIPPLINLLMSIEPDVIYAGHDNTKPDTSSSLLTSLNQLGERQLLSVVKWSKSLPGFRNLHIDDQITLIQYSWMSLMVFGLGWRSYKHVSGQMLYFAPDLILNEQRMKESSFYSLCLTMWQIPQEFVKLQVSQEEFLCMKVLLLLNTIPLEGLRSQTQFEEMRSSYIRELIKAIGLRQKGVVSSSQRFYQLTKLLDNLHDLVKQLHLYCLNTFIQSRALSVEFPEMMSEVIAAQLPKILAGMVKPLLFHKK
Procedure, shortened: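 Antagonist mode with agonist R5020 at 1 nM final and 16 hr incubation at 37C. Reporter was beta-lactamase driven by UAS in HEK293T (PR-UAS-bla), 2% charcoal-stripped serum; signal from LiveBLAzer FRET substrate, 2 hr at room temperature.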

[8] = molecular target: Cytochrome P450 2D6 (Homo sapiens) (UniProt P10635); assay: Cytochrome P450 Family 2 Subfamily D Member 6 (CYP2D6) small molecule antagonists: luciferase reporter qHTS assay (AID 1671196); further: nearly all actives have a fitted effect of over 50% in size; further: potency means the concentration at half of the fitted maximal effect; on activity change, negative = inhibition: on the % scale 0 is the no-effect control and ±100 the full control effect
Chain of UniProt P10635 (P10635 whole entry, looked up): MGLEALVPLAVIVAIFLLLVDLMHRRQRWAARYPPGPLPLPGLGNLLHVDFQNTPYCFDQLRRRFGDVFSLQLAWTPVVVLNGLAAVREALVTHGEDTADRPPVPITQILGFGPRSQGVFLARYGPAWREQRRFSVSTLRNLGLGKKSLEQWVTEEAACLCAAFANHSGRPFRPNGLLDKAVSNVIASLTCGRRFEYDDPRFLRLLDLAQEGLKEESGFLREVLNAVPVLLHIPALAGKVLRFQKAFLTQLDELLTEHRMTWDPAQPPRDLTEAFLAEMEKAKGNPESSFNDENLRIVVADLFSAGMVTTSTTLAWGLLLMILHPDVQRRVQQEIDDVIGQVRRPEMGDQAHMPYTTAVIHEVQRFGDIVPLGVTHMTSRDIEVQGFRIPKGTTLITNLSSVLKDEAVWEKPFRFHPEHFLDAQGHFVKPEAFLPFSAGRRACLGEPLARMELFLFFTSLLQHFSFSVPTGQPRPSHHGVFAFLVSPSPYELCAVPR
Procedure, shortened: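 CYP2D6 enzyme–substrate mix was held with compound for 10 min at room temperature, then NADPH regeneration solution was added and the reaction ran 1 h at room temperature. Luciferin product was detected by luminescence after 20 min with detection reagent.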

[9] = molecular target: Cytochrome P450 2C19 (Homo sapiens) (UniProt P33261); assay: Cytochrome P450 Family 2 Subfamily C Member 19 (CYP2C19) small molecule antagonists: luciferase reporter qHTS assay (AID 1671197); further: potency means the concentration at half of the fitted maximal effect; nearly all actives have a fitted effect of over 65% in size
Chain of UniProt P33261 (P33261 whole entry, looked up): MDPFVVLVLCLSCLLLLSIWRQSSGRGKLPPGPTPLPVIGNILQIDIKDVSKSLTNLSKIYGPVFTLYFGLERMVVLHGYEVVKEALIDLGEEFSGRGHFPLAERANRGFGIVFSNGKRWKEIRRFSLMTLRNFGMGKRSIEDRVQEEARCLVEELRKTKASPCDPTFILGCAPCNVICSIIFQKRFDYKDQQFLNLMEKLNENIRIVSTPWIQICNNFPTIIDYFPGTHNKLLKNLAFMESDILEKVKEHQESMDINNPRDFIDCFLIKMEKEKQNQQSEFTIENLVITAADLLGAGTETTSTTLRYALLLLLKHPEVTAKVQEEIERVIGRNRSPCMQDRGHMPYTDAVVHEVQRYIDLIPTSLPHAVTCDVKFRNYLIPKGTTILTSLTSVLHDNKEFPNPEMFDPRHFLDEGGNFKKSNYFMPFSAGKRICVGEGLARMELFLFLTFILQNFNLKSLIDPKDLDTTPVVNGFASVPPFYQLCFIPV
Procedure, shortened: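 Light output is proportional to CYP2C19 activity: proluciferin substrate is converted to luciferin, then detected by a luciferin detection reagent that also stops the 1 h, 37C NADPH-driven reaction. Ketoconazole serves as positive control.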

[10] = molecular target: Cytochrome P450 2C9 (Homo sapiens) (UniProt P11712); assay: Cytochrome P450 Family 2 Subfamily C Member 9 (CYP2C9) small molecule antagonists: luciferase reporter qHTS assay (AID 1671198); further: potency means the concentration at half of the fitted maximal effect; nearly all actives have a fitted effect of over 50% in size
Chain of UniProt P11712 (P11712 whole entry, looked up): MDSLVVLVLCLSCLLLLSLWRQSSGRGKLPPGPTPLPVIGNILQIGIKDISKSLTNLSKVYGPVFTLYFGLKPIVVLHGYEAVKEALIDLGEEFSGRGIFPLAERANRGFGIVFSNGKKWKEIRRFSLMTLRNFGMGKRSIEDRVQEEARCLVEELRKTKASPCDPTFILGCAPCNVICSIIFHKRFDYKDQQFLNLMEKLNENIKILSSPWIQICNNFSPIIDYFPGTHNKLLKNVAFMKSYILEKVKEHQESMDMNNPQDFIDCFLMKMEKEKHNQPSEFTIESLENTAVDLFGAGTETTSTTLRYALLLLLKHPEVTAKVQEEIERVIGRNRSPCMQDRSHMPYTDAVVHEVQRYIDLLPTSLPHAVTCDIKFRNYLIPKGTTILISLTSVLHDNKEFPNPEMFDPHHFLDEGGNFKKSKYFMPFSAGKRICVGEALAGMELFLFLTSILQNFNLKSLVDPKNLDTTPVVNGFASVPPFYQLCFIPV
Procedure, shortened: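 P450-Glo proluciferin substrate with CYP2C9 enzyme; 10 min RT preincubation, then NADPH regeneration 1 h at 37C; luciferin detection reagent 20 min RT, luminescence in relative luminescence units.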

[11] = qHTS assay for small molecule disruptors of the mitochondrial membrane potential (AID 720635); settings: HepG2 mitochondrial membrane potential, Mito-MPS dye ratio; further: on the % scale 0 is the no-effect control and ±100 the full control effect
Procedure, shortened: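 HepG2 cells exposed to compound 1 hr at 37C, then Mito-MPS dye 30 min. Ratio read of aggregate (540/590 nm) versus monomer (490/535 nm) fluorescence.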

[12] = qHTS assay for identifying genotoxic compounds that show differential cytotoxicity against isogenic chicken DT40 cell lines with known DNA damage response pathways - Rev3 mutant cell line (AID 743014); settings: chicken DT40 Rev3-/- viability, CellTiter-Glo, 40 h; activity, negative = cytotoxicity: at 68.4 µM (top of the series); further: nearly all actives have a fitted effect of over 55% in size; further: potency means the concentration at half of the fitted maximal effect
[13] = qHTS assay to identify small molecule antagonists of the thyroid receptor (TR) signaling pathway - cell viability counter screen (AID 743064); settings: GH3.TRE-Luc viability, CellTiter-Fluor, 24 h; activity change, negative = cytotoxic: at 70.3 µM (top of the series) unless noted; further: potency means the concentration at half of the fitted maximal effect; nearly all actives have a fitted effect of over 50% in size
Procedure, shortened: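 In-well cytotoxicity read by CellTiter-Fluor (30 min, 37 C) following 23.5 h exposure of GH3 cells bearing a TRE-luciferase sensor. Compounds were added alongside 1 nM (final) T3 to drive TR transactivation.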

[14] = molecular target: Cytochrome P450 1A2 (Homo sapiens) (UniProt P05177); assay: Cytochrome P450 Family 1 Subfamily A Member 2 (CYP1A2) small molecule antagonists: luciferase reporter qHTS assay (AID 1671199); further: potency means the concentration at half of the fitted maximal effect; nearly all actives have a fitted effect of over 50% in size
Chain of UniProt P05177 (P05177 whole entry, looked up): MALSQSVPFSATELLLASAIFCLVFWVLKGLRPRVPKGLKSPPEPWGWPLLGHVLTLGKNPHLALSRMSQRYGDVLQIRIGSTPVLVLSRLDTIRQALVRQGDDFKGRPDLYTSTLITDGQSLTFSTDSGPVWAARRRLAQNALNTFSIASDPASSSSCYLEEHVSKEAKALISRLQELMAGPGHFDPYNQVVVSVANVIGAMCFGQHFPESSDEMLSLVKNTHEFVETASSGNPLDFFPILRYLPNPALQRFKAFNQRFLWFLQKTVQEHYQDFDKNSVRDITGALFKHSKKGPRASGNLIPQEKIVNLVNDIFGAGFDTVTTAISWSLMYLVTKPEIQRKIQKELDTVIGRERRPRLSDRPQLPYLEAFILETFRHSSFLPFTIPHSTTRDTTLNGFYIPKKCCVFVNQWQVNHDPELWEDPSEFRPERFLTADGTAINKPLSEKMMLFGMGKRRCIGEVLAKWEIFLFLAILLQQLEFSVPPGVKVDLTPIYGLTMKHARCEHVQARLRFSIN
Procedure, shortened: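 Human CYP1A2 activity measured with a P450-Glo proluciferin substrate; compounds in DMSO preincubated 10 min at room temperature with enzyme-substrate mix, then NADPH regeneration system added for 1 h. Luciferin detection reagent, 20 min, luminescence read.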

[15] = molecular target: Vitamin D3 receptor (Homo sapiens) (UniProt P11473); assay: qHTS assay to identify small molecule antagonists of the vitamin D receptor (VDR) signaling pathway (AID 743223; active means well fitted inhibition curve with a large enough effect in the signal ratio in the repeat runs, not every such curve was filed as active; inconclusive means weak or mixed curves, or effect the other way; inactive means no such curve, though single readings can be large or run the other way; the % refers to the signal ratio; further: on the % scale 0 is the no-effect control and ±100 the full control effect); settings: VDR-UAS-bla HEK293T, beta-lactamase FRET ratio, 16 h; activity change, negative = inhibition: at 61 µM (top of the series) unless noted
Chain of UniProt P11473 (P11473 whole entry, looked up): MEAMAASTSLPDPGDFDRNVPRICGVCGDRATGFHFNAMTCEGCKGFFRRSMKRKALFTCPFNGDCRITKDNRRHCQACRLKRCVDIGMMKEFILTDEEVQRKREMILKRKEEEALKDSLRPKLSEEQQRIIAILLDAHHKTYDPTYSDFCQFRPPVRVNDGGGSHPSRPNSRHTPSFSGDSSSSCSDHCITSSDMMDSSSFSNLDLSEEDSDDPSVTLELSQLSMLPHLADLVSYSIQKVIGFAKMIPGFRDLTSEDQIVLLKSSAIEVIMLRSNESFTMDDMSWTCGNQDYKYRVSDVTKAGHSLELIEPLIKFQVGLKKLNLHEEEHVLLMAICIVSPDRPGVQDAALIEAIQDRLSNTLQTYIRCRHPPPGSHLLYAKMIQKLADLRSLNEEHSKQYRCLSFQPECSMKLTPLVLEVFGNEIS
Procedure, shortened: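 Antagonist mode: compound added to VDR-bla cells alongside agonist 1alpha,25-dihydroxyvitamin D3 (3 nM final), incubation 16 h at 37C. Read-out is LiveBLAzer FRET fluorescence, 2 h at room temperature.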

[16] = qHTS assay for small molecule agonists of the p53 signaling pathway (AID 651631; calls by dose curve; further: potency means the concentration at half of the fitted maximal effect; nearly all actives have a fitted effect of over 15% in size); settings: HCT-116 p53RE-bla reporter, beta-lactamase FRET ratio, 16 h; activation: at 73.3 µM (top of the series) unless noted
Procedure, shortened: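 Readout was fluorescence from the LiveBLAzer FRET substrate, applied for 2 h at room temperature after 16 h compound exposure at 37 °C. Cells were the p53RE-bla HCT-116 line, with beta-lactamase driven by p53 response elements.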

[17] = qHTS assay for small molecule agonists of the antioxidant response element (ARE) signaling pathway (AID 743202; active means well fitted activation curve with a large enough effect in the signal ratio in the repeat runs, not every such curve was filed as active; inconclusive means weak or mixed curves, or effect the other way; inactive means no such curve, though single readings can be large or run the other way; the % refers to the signal ratio; further: potency means the concentration at half of the fitted maximal effect); settings: HepG2 ARE-bla reporter, beta-lactamase FRET, 16 h; activation: at 73.3 µM (top of the series) unless noted
Procedure, shortened: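 Agonist mode reporter screen: HepG2 cells with ARE-controlled beta-lactamase are incubated with test compounds for 16 h at 37 C, and beta-lactamase activity is measured as fluorescence of cleaved B/G FRET substrate.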

[18] = qHTS assay for identifying genotoxic compounds that show differential cytotoxicity against isogenic chicken DT40 cell lines with known DNA damage response pathways - Rad54/Ku70 mutant cell line (AID 743015); settings: DT40 Rad54/Ku70 mutant viability, CellTiter-Glo, 40 h; activity change, negative = cytotoxicity: at 66.8 µM (top of the series); further: on the % scale 0 is the no-effect control and ±100 the full control effect; nearly all actives have a fitted effect of over 60% in size
[19] = activity change, negative = inhibition: at 92.4 µM (top of the series) unless noted
[20] = ratio activity, negative = MMP loss: at 83.2 µM (top of the series) unless noted
Tags describe the fitted curve by direction and shape or compound fluorescence and quenching.

**Q.** For S=c1[nH]c2ccccc2[nH]1, which Potency [1] is on record?
**A.** Its Potency is inconclusive: 6.18 µM [activator, full curve].

**Q.** And the Potency [2]?
**A.** The Potency was inconclusive: 0.865 µM [rising, full curve, poor fit].

**Q.** What about the Potency [3] of the same compound?
**A.** Its Potency is “inactive”.

**Q.** And the Potency [4]?
**A.** The Potency was “inactive”.

**Q.** And the Potency [5]?
**A.** Its Potency is inconclusive: 30.7 µM [inhibitor, partial curve, poor fit].

**Q.** And the Potency [6]?
**A.** The Potency was “inactive”.

**Q.** And the Potency [7, 19]?
**A.** Its Potency is active: 30.7 µM and inconclusive: 43.3 µM.

**Q.** And the Potency [8]?
**A.** The Potency was “inactive”.

**Q.** What about the Potency [9] of the same compound?
**A.** Its Potency is inconclusive: 79.8 µM [inhibitor, single point].

**Q.** What about the Potency [10] of the same compound?
**A.** The Potency was inconclusive: 56.4 µM [inhibitor, partial curve].

**Q.** For COc1ccccc1N, which ratio activity, negative = MMP loss [11, 20] is on record?
**A.** The ratio activity, negative = MMP loss was inconclusive: 5.85% [at 95.3 µM] and inconclusive: 0.622% [at 95.3 µM].

**Q.** What about the Potency [12] of the same compound?
**A.** The Potency was “inactive”.

**Q.** What about the Potency [13] of the same compound?
**A.** The Potency was inconclusive: 68.6 µM [rising, partial curve, poor fit].

**Q.** What about the Potency [3] of the same compound?
**A.** The Potency was “inactive”.

**Q.** And the Potency [4]?
**A.** Its Potency is inconclusive: 27.3 µM [activator, partial curve, poor fit].

**Q.** What about the Potency [6] of the same compound?
**A.** Its Potency is “inactive”.

**Q.** And the activity change, negative = inhibition [7, 19]?
**A.** Its activity change, negative = inhibition is inconclusive: 8.57%.

**Q.** And the activity change, negative = inhibition ([7]; at 92.4 µM (top of the series))?
**A.** Its activity change, negative = inhibition is inactive: -7.53% and inactive: 4.43% and inactive: -3.63%.

**Q.** What about the Potency [10] of the same compound?
**A.** Its Potency is inconclusive: 79.6 µM [inhibitor, partial curve] and inconclusive: 40.6 µM [inhibitor] and inconclusive: 56.4 µM [inhibitor, partial curve].

**Q.** What about the Potency [14] of the same compound?
**A.** Its Potency is inconclusive: 63.5 µM [inhibitor, partial curve, poor fit].

**Q.** What does the source list for CC1NCCOC1c1ccccc1 (stereo not drawn)?
**A.** Potency [3]: inactive; Potency [15]: inactive; Potency [4]: inactive; Potency [5]: inactive; Potency [8]: inconclusive: 13.8 µM [inhibitor, full curve]

**Q.** What does the source list for C(COCC1CO1)OCC1CO1 (stereo not drawn)?
**A.** Potency [16]: inconclusive: 61.1 µM [activator, partial curve]; ratio activity, negative = MMP loss [11, 20]: inconclusive: -13.3%; Potency [2]: active: 6.86 µM; Potency [17]: inconclusive: 43.3 µM [rising, partial curve]; Potency [4]: inconclusive: 77 µM [inhibitor, single point]; Potency [7, 19]: inactive; Potency [8]: inconclusive: 35.6 µM [inhibitor, partial curve, poor fit]

**Q.** Which results are given for CNC(=O)O/N=C/C(C)(C)SC?
**A.** ratio activity, negative = MMP loss ([11]; at 83.2 µM (top of the series)): inconclusive: 14.5%; ratio activity, negative = MMP loss ([11]; at 95.3 µM (top of the series)): inconclusive: 0.451%; Potency [1]: inactive; Potency [12]: inactive and inconclusive: 30.6 µM [cytotoxic, full curve, poor fit]; Potency [18]: inactive; Potency [4]: inactive
